Measurements taken from the RNAGym collection of RNA variant scans (doi:10.7554/elife.90254).
The source gives no read counts; variants with many changes may rest on few reads.

B1: LINE1-full (parent)
chain: UACGUAGGUGGUUUUCCCCUGAUAGUGCUAAGGGGGCCUGGAAGUUUGGACUGGGCAGAGCUCAACACAGCGUGGCAAAGUGGCUGUGGCUAGACUGCCUCUCUGGAUUCCUCGUCACUCAGCAGGGCAUCUCUGAGAGAAAUGCC

Variants of: B1
Assay: self-cleavage, relative activity (ratio to wild type); higher = more cleavage; in vitro, sequencing; the parent is a self-cleaving ribozyme
Work on A50G A92U U134C yielded a self-cleavage of 0.53. For U9C U12C U119C, the self-cleavage was 1.31. In the case of U20C A22U G144A, the self-cleavage is reported as 0.72. For U12C A78G U130C, the self-cleavage was 1.66. With A22U U23C C37G A67G A136G G139U the self-cleavage was 0.54. With U45C A65G G97U the self-cleavage was 0. U87A C101U A136G gave a self-cleavage of 0.07. U9A U39C G40U A77G A94G gave a self-cleavage of 0. With U12G U29C G80U U100A A107G C123U the self-cleavage was 0.94. A64G U96A A138G showed a self-cleavage of 0.06. A43C C63U A69U U130C gave a self-cleavage of 0.06. Work on U9A U62C A64U yielded a self-cleavage of 0.07. In the case of C28U A43G A67G U73A A141G, the self-cleavage is reported as 0.5. U9C A43G A50U A136G showed a self-cleavage of 0. Variant U29C A65G C99U G125A has a self-cleavage of 0.06. For G25A U52A U134A, the self-cleavage was 1.09. A77U A79G U112A showed a self-cleavage of 1.62. Variant A50U A67U U108C A142G has a self-cleavage of 0.09. Variant C68U U104A U115C A129U has a self-cleavage of 0.1. In the case of G35U A57U U85C U108C U115C, the self-cleavage is reported as 0.2. In the case of A30U U45C U52A U62C A69U A142U, the self-cleavage is reported as 0.06. Variant U23C A24G A42U U47A U134C G144A has a self-cleavage of 0.67. With U13C C37A U85C U115C the self-cleavage was 0.33. With A50G C90A A140G the self-cleavage was 0.02. U26C A67C G72A A78G A136G showed a self-cleavage of 0.01. In the case of G8A U47C U130C, the self-cleavage is reported as 1.35. A79G A141U U143C gave a self-cleavage of 1.77. Work on U20C U81A U104A C133A yielded a self-cleavage of 1.21. Work on U62A A121U A136G yielded a self-cleavage of 0.02. Variant U39A U62C G74A A121C has a self-cleavage of 0.02. With A22U A78G G125A the self-cleavage was 1.53. Variant G34A U85C G106A U112A has a self-cleavage of 0.11. U47A A57U U96G showed a self-cleavage of 0.07. For U20A U39C U45C, the self-cleavage was 2. Work on U46C A78U U85C A141G yielded a self-cleavage of 0.26. Work on U15A A59G A140G yielded a self-cleavage of 0.41. U47C A59G U85C gave a self-cleavage of 0. In the case of U29C A30G A42G G60A A117G A129G, the self-cleavage is reported as 0. Work on A22G G55A A117G U119C yielded a self-cleavage of 0.38. For U5C A22G U87C, the self-cleavage was 0. For A59G U81A U108C U143A, the self-cleavage was 0. Work on C3U U20C A78G U112A U130C yielded a self-cleavage of 0.48. G27A U112C A129U gave a self-cleavage of 0.68. In the case of U15C U81C U91C U112C G125A, the self-cleavage is reported as 1.53. With U47A U96C G114A the self-cleavage was 0.05. U52G A77U A78G showed a self-cleavage of 1.9. With U13C G36A U119A the self-cleavage was 0.8. Work on U23C U81A U85C U108C U132C yielded a self-cleavage of 0. Variant A64G U96C A142G has a self-cleavage of 0.12. U62C A77G A94G showed a self-cleavage of 0. Work on U39C U62A A64U A78G U100C yielded a self-cleavage of 0. With U15C A31U A59G A65G A141G the self-cleavage was 0.51. In the case of C38A A78C U115C, the self-cleavage is reported as 1.77. In the case of U29C U45A U96A, the self-cleavage is reported as 0.09. G8A U15C U20C A59G U96A U108C showed a self-cleavage of 0. Variant A30G U39A U132C has a self-cleavage of 1.31. For G60A U115C A124G, the self-cleavage was 0. U14A A50G A79G C99U showed a self-cleavage of 0.15. Work on G72A U73A A140G yielded a self-cleavage of 2.65. A22G A69G U73A gave a self-cleavage of 0.6. Variant U45G A59G A79G A142G has a self-cleavage of 0. Work on G49A U100C A136G yielded a self-cleavage of 2.08. Variant C17U U20A A57U U104A has a self-cleavage of 0.07. In the case of U45A U73C A142G, the self-cleavage is reported as 1.57. For U1C U108C U132C, the self-cleavage was 1.07. A64G U119A A129G gave a self-cleavage of 0. U9C A107G A138G showed a self-cleavage of 1.06. For U13C U87A U91C A129G, the self-cleavage was 0.33. With U5C U13C A59G A69G the self-cleavage was 0. In the case of C18U A65G C71U, the self-cleavage is reported as 0.21. Work on C61G U62C A141U yielded a self-cleavage of 0.04. C3A U39C U62C gave a self-cleavage of 0. Variant A24G G75A A107G has a self-cleavage of 1.43. Work on U13A G32A U45C yielded a self-cleavage of 1.31. G32C U47C G55A A142G showed a self-cleavage of 0.54. U15C U73C A142G gave a self-cleavage of 2.76. A30G A67G U112C U115A gave a self-cleavage of 0. U20A A43C G60A gave a self-cleavage of 0.06. Work on A22U A24G A43G A65G yielded a self-cleavage of 0.3. Work on A6G U87A A140U yielded a self-cleavage of 0.16. Work on U5C G34A U45C U87C yielded a self-cleavage of 0.27. For U45C A50U G58U G93U U134C A140G, the self-cleavage was 0. U9A A50G C56U U81A A107G A124U A142C showed a self-cleavage of 0.06. G4A A92G A107U showed a self-cleavage of 0.26.
